This is an account of results in the RNAGym collection of RNA variant scans (doi:10.7554/elife.90254).

The source gives no read counts; variants with many changes may rest on few reads.

B1: LINE1-mini (parent)
chain: GGCAGAGCUCAACACAGCGUGGCAAAGUGGCUGUGGCUAGACUGCC

The data set covers variants of B1. The data set can be described thus: self-cleavage, relative activity (ratio to wild type); higher = more cleavage; in vitro, sequencing; the parent is a self-cleaving ribozyme.
As for C3A G5A C23A A41C, the self-cleavage was 1.13.
As for C3A G22C G36U A41U G44A, the figure is 0.07.
Take C3A A25G A26G: the self-cleavage amounted to 0.14.
For C3A A25G A26C, the self-cleavage was 0.3.
Then C3A A39G G40U U43G, with 1.44.
As for C3A G17U C23G A26U U28C, the figure is 0.59; as for C3A C13A C15U C42G, 0.98.
As to C3A A24G G29A C31A U32C, the self-cleavage was 0.13.
As to C3A C8A G17A, the self-cleavage was determined as 0.41.
For C3A C10G G17U G22C C31A C42U C46U, the self-cleavage worked out at 0.01.
C3A C18G G21C G36A: the self-cleavage was 0.31.
As for C3A C31G U32G, the figure is 0.13; as for C3A G17U U43C, 0.17; as for C3A C8U A16C G21A G30U G33A, 0.39.
As for C3A C13G U28G, the figure is 0.61; as for C3A G17A G30C C46A, 0.15.
Then C3A G5C A11U G17U, with 0.03.
For the variant C3A C10G C31U, the self-cleavage worked out at 0.02.
As to C3A C15U G27C C37A, the self-cleavage was 0.02.
Take C3A G5C A6U: the self-cleavage is 0.9.
On to C3A G19U C23U G30A A41C, for which the self-cleavage turned out to be 0.09.
As for C3A C8A U9C A24U, the figure is 0.19; as for C3A C10A U43C, 0.02.
As for C3A C13A A39U, the figure is 0.24.
Regarding C3A A26U U38C, the self-cleavage worked out at 0.72.
C3A G19C G44C: the self-cleavage came to 0.15.
C3A G5A A24C G33C A41G: the self-cleavage was found to be 0.19.
As for C3A C10U C15G G40U, the figure is 0.18; as for C3A G22U C23U A39G G40U, 2.83.
On to C3A A26C U43A, for which the self-cleavage was 0.14.
Consider C3A A24C A41U C42G C46A, for which the self-cleavage came out at 0.08.
On to C3A G19C U32G C42U C45A, for which the self-cleavage came to 0.07.
For C3A G17C U20G, the self-cleavage came out at 0.16.
Take C3A G5U G35A C46A: the self-cleavage was 0.04.
As for C3A G19A A25G G30C C42U C46G, the self-cleavage is 0.1.
Regarding C3A G17U C23A A26U C46U, the self-cleavage was 0.04.
C3A G17A G22A: the self-cleavage was determined as 0.13.
Then C3A C13A A41C, with 0.39; and C3A C13G G22U G29A, with 0.82; and C3A C8G G19C G27C, with 0.15.
In the case of C3A G17A C18G A39G C45G, the self-cleavage is 0.1.
Take C3A C8U U9C C10G G19U C42U: the self-cleavage amounted to 0.01.
Consider C3A C13A C18A G40A C46G, for which the self-cleavage worked out at 0.02.
Regarding C3A G5U C13G, the self-cleavage worked out at 0.15.
Consider C3A A26U A41C, for which the self-cleavage came to 0.1.
On to C3A G5U G35U, for which the self-cleavage was 0.13.
With C3A C8A C13G, the self-cleavage was determined as 0.4.
For the variant C3A C13U C45G, the self-cleavage turned out to be 0.79.
As to C3A C8U C23G C42U, the self-cleavage came out at 1.72.
As for C3A C8G C13A C15G C23A C31U, the self-cleavage came out at 0.1.
As to C3A C8G G27A G30U U34A C46A, the self-cleavage worked out at 0.07.
On to C3A C10G A11C, for which the self-cleavage was 0.04.
On to C3A G17A U34A, for which the self-cleavage came to 0.17.
Consider C3A G17A U34C, for which the self-cleavage stood at 0.08.
As for C3A C8A U28C, the self-cleavage stood at 0.55.
As to C3A G17A G29C G30U C31U U32G, the self-cleavage was 0.23.
For the variant C3A G7A C18A, the self-cleavage was found to be 0.3.
As for C3A G5U C13G A25C U32A G40U, the figure is 0.04; as for C3A C8G U9A G35U G36U, 1.04.
C3A C10A G21U C42U C45U: the self-cleavage was found to be 0.04.
As for C3A C10A G21A C31A, the self-cleavage was 0.05.
On to C3A G17A A39G A41G, for which the self-cleavage worked out at 0.02.
Take C3A C8U U9C C15A: the self-cleavage is 0.18.
For C3A A26C U28A C31G G33U A41G, the self-cleavage was 0.13.
For C3A C10A A14C G21C, the self-cleavage stood at 0.
As for C3A G5U C8A C10G U28C C45G, the figure is 0.05.
For the variant C3A C10U G40A, the self-cleavage was determined as 0.06.
Consider C3A G21U A39C, for which the self-cleavage was 0.03.
For the variant C3A C8A A14U G19A A26C U34A A39U, the self-cleavage is 0.03.
In the case of C3A G7U C13A G19C C31U, the self-cleavage is 0.13.
On to C3A A16U A26G, for which the self-cleavage turned out to be 0.25.
With C3A A25G U34C, the self-cleavage was 0.16.
With C3A C18A G44C, the self-cleavage is 0.83.
Take C3A C10U A24G G40U: the self-cleavage amounted to 0.02.
C3A G21C G30U G44U: the self-cleavage is 2.71.
Then C3A G5A G22U, with 0.88.
As for C3A C10A G17U G44A, the figure is 0.06; as for C3A C18G U28A C42U, 0.21; as for C3A G7U G29C G35C, 0.06.
Regarding C3A C8A A26G, the self-cleavage worked out at 0.21.
As to C3A G5U C46U, the self-cleavage came to 0.09.
Consider C3A C10U A16U G35A, for which the self-cleavage was found to be 0.05.
Then C3A G17U C23G A26G G33C, with 0.01.
Take C3A A16U G40U: the self-cleavage came to 0.11.
As for C3A A16U U34G G35C, the self-cleavage was 0.15.
On to C3A C13A G33U C37A A39G, for which the self-cleavage is 0.06.
Regarding C3A G7U A14U C15A C23U G35A, the self-cleavage came to 0.34.
Consider C3A G5C C10G, for which the self-cleavage turned out to be 0.04.
As to C3A G21A G22U A39G, the self-cleavage was determined as 0.2.
Regarding C3A C15U A26U G44U, the self-cleavage was 0.25.
In the case of C3A A24G A39U, the self-cleavage was determined as 0.18.
As to C3A G7U C8G A12C C37U A39U, the self-cleavage stood at 0.02.
As to C3A G7C A14G C46A, the self-cleavage was 0.04.
Take C3A A24U U32A: the self-cleavage worked out at 0.26.
In the case of C3A G7A A12U A25U U38G U43G, the self-cleavage was 0.06.
As for C3A A24G A26U G33C U34C U38G C45U, the figure is 0.04.
For the variant C3A C10G C15A U20A A25C, the self-cleavage turned out to be 0.02.
On to C3A C13A G21A G27U G29U, for which the self-cleavage turned out to be 1.65.
As for C3A C10A G40U A41U, the self-cleavage was determined as 0.04.
For the variant C3A C23U A26U, the self-cleavage stood at 0.7.
For C3A G7A A14G G29A, the self-cleavage is 0.67.
For the variant C3A G21C G33U, the self-cleavage worked out at 0.1.
Turning to C3A C15U U43G G44C, the self-cleavage amounted to 1.55.
As for C3A G7A C10A G17C, the figure is 0.11; as for C3A G5A G30C, 0.2.
With C3A C10U A25G A26G G33C, the self-cleavage worked out at 0.03.
As for C3A C10U A25G G40U A41G C42G, the self-cleavage came out at 0.04.
Then C3A G21U G30A, with 0.89.
Turning to C3A G21U G30C, the self-cleavage amounted to 2.43.
As for C3A C13G G36C G44A, the figure is 0.31; as for C3A C13A A14G, 0.04; as for C3A C31A U34A C46G, 0.09.
With C3A C10U A25U U28C G30U G36C G40U, the self-cleavage amounted to 0.04.
C3A G17U C18U U32C G33U U38G G44U: the self-cleavage was 0.
For the variant C3A G19C A25U G27U C31U C37A, the self-cleavage came out at 0.23.
Then C3A G7C G22U C31U U32A, with 0.11; and C3A C13A C31A, with 0.08; and C3A G7A A16U C37U, with 0.12.
As for C3A C13A G30C C46A, the figure is 0.44; as for C3A A25U A39U, 0.09.
C3A A39C U43C: the self-cleavage amounted to 0.07.
Then C3A G5U A16C U28C G29C, with 0.1; and C3A C13A U43C, with 0.97; and C3A G19C G29A U32C C42U, with 0.09.
Then C3A G19C C42A, with 0.07; and C3A C8G U32G G36C C46A, with 0.1; and C3A C8G C46G, with 0.12.
Then C3A G5A G27A, with 0.09.
For C3A A24C G33C, the self-cleavage stood at 0.11.
With C3A A16U C45U, the self-cleavage is 0.07.
As for C3A G19C A24G A26U, the figure is 0.15; as for C3A C15A A41C, 0.13.
On to C3A C15A G17C U20A A39U, for which the self-cleavage came out at 0.04.
Turning to C3A G5U A11U A12C A14C C15U C37A, the self-cleavage was determined as 0.01.
In the case of C3A G21U C46A, the self-cleavage was found to be 1.01.
As for C3A C15G A16C A26U U43C, the self-cleavage is 0.09.
As for C3A C15U G30A, the self-cleavage was determined as 0.32.
For C3A A24U C31A U34A C46A, the self-cleavage amounted to 0.01.
Take C3A A25C G40U: the self-cleavage came to 0.12.
As for C3A A25C G40A, the self-cleavage was 0.1.
As for C3A G19C U34G U38G G44C, the figure is 0.01; as for C3A C23A C45G, 0.09; as for C3A C13A G35C C37U, 0.1.
As for C3A G7C G22U C23A G33U, the figure is 0.34; as for C3A A26U G29C U32C, 0.16; as for C3A G5U C15A G35U A41U, 0.1.
For the variant C3A A26G U32G U34G, the self-cleavage amounted to 0.13.
C3A C13A U38A G40U: the self-cleavage stood at 0.2.
Take C3A G7A C23G A24U G30C C31U: the self-cleavage was 0.2.
Then C3A G5A A6C G17A A24U G27U, with 0.33.
As for C3A G5U G21C U28A, the self-cleavage was found to be 0.03.
C3A C15U A41U C45U: the self-cleavage amounted to 0.26.
For the variant C3A C13G G36C, the self-cleavage turned out to be 0.14.
On to C3A G22U C23U G44C, for which the self-cleavage was determined as 0.73.
For the variant C3A A26U C46A, the self-cleavage was determined as 0.15.
For the variant C3A G21U A41C, the self-cleavage is 0.08.
As to C3A G7C U32A G44A, the self-cleavage was 0.04.
Regarding C3A G17U G33C G40A, the self-cleavage worked out at 0.14.
Regarding C3A C18G C45A, the self-cleavage was found to be 0.02.
As for C3A G7C C10G A11G C15A C18A G21C, the self-cleavage was 0.03.
With C3A C23A U28G G35A, the self-cleavage was 0.67.
Regarding C3A G22A G33U C46G, the self-cleavage turned out to be 0.18.
On to C3A C8G C13U G36U A39G, for which the self-cleavage worked out at 0.23.
As for C3A G7U A11U C31U G36U C42A, the self-cleavage was 0.03.
For the variant C3A G5A A39G, the self-cleavage was 0.11.
Consider C3A C10A G29U G30A, for which the self-cleavage was 0.06.
Take C3A G7U A16C A41U: the self-cleavage stood at 0.3.
